For assay [1], the system named is gene transcription in wild type. Put plainly: Transcriptome analysis with added BMA, wild type. Particulars: in the presence of BMA; wild type strain. The procedure:
2. […] Incubate at 37° C. and 250 rpm.
Levels of transcription of acrA and acrB were enhanced in the absence of BMA, however this was very variable. For the wild type strain, exposure to BMA actually reduces the expression level of the global regulator.

Assay [2] concerns E. coli BW25113 isolate 6-soxR(A146del), acrR(indels). The following applies: 20% v/v BMA; strain 6.
Assay [3] concerns E. coli BW25113 isolate 7-rob(A70V) acrR(indels). The following applies: 20% v/v BMA; strain 7.
In assay [4] the test system is E. coli BW25113 isolate 18-rob(A70T)yohJ(L109R) dnaK(V377G) 927777(C > T) acrR(A191fs). Particulars: 20% v/v BMA; strain 18.

The structures appear in SMILES notation.

On to `C=C(C)C(=O)OCCCC` [BMA, butyl 2-methylprop-2-enoate], for which the “Transcription of ibpA, ibpB, ynfM, yibT, pspA, bssR, ybfA, raiA, IdhA, pspB pspC and pspD” value in assay [1] is listed as “reduced”. In assay [2], this compound gave a Growth rate of 0.620 ± 0.029 h⁻¹, a Lag time of 4 h and a Max cell concentration of 0.588 ± 0.029 g/L. Also, in assay [3], the Growth rate came to 0.613 ± 0.033 h⁻¹, the Lag time came to 4 h and the Max cell concentration was 0.568 ± 0.050 g/L. In assay [4], this compound came in with a Growth rate of 0.709 ± 0.015 h⁻¹, a Lag time of 5 h and a Max cell concentration of 1.036 ± 0.046 g/L.

The values above are taken from patent US11781160B2, “Methods for the production of methacrylates” (priority 2018, dated 2023).
